Cell count data for 33 compounds are collected here from the supplement of paper PMC4604168 (melanoma cell lines).

The other results are listed elsewhere or left out. Single values are uncertain, as repeats are few or missing.
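Also: cells treated in 1,536-well plates, then fixed and DAPI-stained, with nuclei counted from automated high-throughput microscope images.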

This test relates to 501Mel. Kind of test: cell count relative to DMSO control; melanoma cells; higher = more viable cells. To be noted: library dose: standard library concentration; 72 h.
`O=C(O)c1ccc(-c2c[nH]c3ncc(-c4ccccc4)cc23)cc1C1CCCC1` + CCc1ccc(CCOc2ccc(CC3SC(=O)NC3=O)cc2)nc1 [pioglitazone] (first compound 0.8 µM, partner dose 10 µM) returned a cell count of 84.7%. Then `Cn1cncc1[C@@](N)(c1ccc(Cl)cc1)c1ccc2c(c1)c(-c1cccc(Cl)c1)cc(=O)n2C` [tipifarnib] + Oc1cc(-c2nc(-c3ccccc3)[nH]c2-c2ccncc2)ccc1Cl [L779450] (first compound 0.05 µM, partner dose 1 µM), with 63.4%; and `C[C@@H]1CCN(C(=O)CC#N)C[C@@H]1N(C)c1ncnc2[nH]ccc12` + O=c1cc(-c2cccc3c2Sc2ccccc2S3)oc(N2CCOCC2)c1 [KU55933] (first compound 5 µM, partner dose 5 µM), with 72.4%; and `O=C(Nc1cccc(Cl)c1)Nc1ncc(CCNc2ncnc3ccsc23)s1` + CCN(CC)CCCCNc1ncc2cc(-c3cc(OC)cc(OC)c3)c(NC(=O)NC(C)(C)C)nc2n1 [PD173074] (first compound 0.004 µM, partner dose 0.5 µM), with 93.2%. Next, `O=c1[nH]nc(Sc2ncc([N+](=O)[O-])s2)n1-c1ccc2c(c1)OCCO2` + Cn1cc(/C=C2\C(=O)Nc3cccnc32)c2ccccc21 [GW441756] (first compound 1 µM, partner dose 2 µM): 97.6%. For `CC1(C)NC(=O)N(c2ccc([N+](=O)[O-])c(C(F)(F)F)c2)C1=O` [nilutamide] + Oc1nc(-c2ccc(C(F)(F)F)cc2)nc2c1CSCC2 [XAV939] (first compound 5 µM, partner dose 10 µM), the cell count came to 76.5%. Then `CC1(C)NC(=O)N(c2ccc([N+](=O)[O-])c(C(F)(F)F)c2)C1=O` [nilutamide] + N#Cc1c(O)c2c(-c3ccc(-c4ccccc4O)cc3)csc2[nH]c1=O [A769662] (first compound 5 µM, partner dose 10 µM), with 92.4%; and `O=C(O)c1ccc(-c2c[nH]c3ncc(-c4ccccc4)cc23)cc1C1CCCC1` + COc1ccc(COc2ccc(Cc3cnc(N)nc3N)cc2OC)cc1 [GW2580] (first compound 0.8 µM, partner dose 5 µM), with 72.3%; and `O=C(Nc1cccc(Cl)c1)Nc1ncc(CCNc2ncnc3ccsc23)s1` + COc1cc(N2CCC(N3CCN(C)CC3)CC2)ccc1Nc1ncc(Cl)c(Nc2ccccc2S(=O)(=O)C(C)C)n1 [NVP-TAE684] (first compound 0.004 µM, partner dose 0.4 µM), with 65%. Then `C[C@@H]1CCN(C(=O)CC#N)C[C@@H]1N(C)c1ncnc2[nH]ccc12` + COc1ccc(COc2ccc(Cc3cnc(N)nc3N)cc2OC)cc1 [GW2580] (first compound 5 µM, partner dose 5 µM), with 108%; and `COc1cc(Nc2ncc(F)c(Nc3ccc4c(n3)NC(=O)C(C)(C)O4)n2)cc(OC)c1OC` [Tamatinib] + COc1ccc(-c2ccc3c(N4CCOCC4)nc(N4C[C@@H](C)O[C@@H](C)C4)nc3n2)cc1CO [KU0063794] (first compound 2 µM, partner dose 0.1 µM), with 79%. Next, `COc1cc(Nc2ncc(F)c(Nc3ccc4c(n3)NC(=O)C(C)(C)O4)n2)cc(OC)c1OC` [Tamatinib] + COc1cc(N2CCC(N3CCN(C)CC3)CC2)ccc1Nc1ncc(Cl)c(Nc2ccccc2S(=O)(=O)C(C)C)n1 [NVP-TAE684] (first compound 2 µM, partner dose 0.4 µM): 73.1%; `C[C@@H]1CCN(C(=O)CC#N)C[C@@H]1N(C)c1ncnc2[nH]ccc12` + N#Cc1c(O)c2c(-c3ccc(-c4ccccc4O)cc3)csc2[nH]c1=O [A769662] (first compound 5 µM, partner dose 10 µM): 87.1%.

For the compound `O=C(O)c1ccc(-c2c[nH]c3ncc(-c4ccccc4)cc23)cc1C1CCCC1` + Oc1nc(-c2ccc(C(F)(F)F)cc2)nc2c1CSCC2 [XAV939] (first compound 0.8 µM, partner dose 10 µM), the cell count was 91.8%.

In the case of `COc1cc(Nc2ncc(F)c(Nc3ccc4c(n3)NC(=O)C(C)(C)O4)n2)cc(OC)c1OC` [Tamatinib] + N#Cc1c(O)c2c(-c3ccc(-c4ccccc4O)cc3)csc2[nH]c1=O [A769662] (first compound 2 µM, partner dose 10 µM), the cell count worked out at 82.7%. As for `Cn1cncc1[C@@](N)(c1ccc(Cl)cc1)c1ccc2c(c1)c(-c1cccc(Cl)c1)cc(=O)n2C` [tipifarnib] + COc1ccc(-c2ccc3c(N4CCOCC4)nc(N4C[C@@H](C)O[C@@H](C)C4)nc3n2)cc1CO [KU0063794] (first compound 0.05 µM, partner dose 0.1 µM), the cell count was found to be 49.5%. Then `O=C(O)c1ccc(-c2c[nH]c3ncc(-c4ccccc4)cc23)cc1C1CCCC1` + Cc1cc([N+](=O)[O-])ccc1NS(=O)(=O)c1cc(Cl)ccc1Cl [FH535] (first compound 0.8 µM, partner dose 5 µM), with 68.2%; and `COc1cc(Nc2ncc(F)c(Nc3ccc4c(n3)NC(=O)C(C)(C)O4)n2)cc(OC)c1OC` [Tamatinib] + COc1ccc(COc2ccc(Cc3cnc(N)nc3N)cc2OC)cc1 [GW2580] (first compound 2 µM, partner dose 5 µM), with 80.4%. Then `O=C(O)c1ccc(-c2c[nH]c3ncc(-c4ccccc4)cc23)cc1C1CCCC1` + Cn1cc(/C=C2\C(=O)Nc3cccnc32)c2ccccc21 [GW441756] (first compound 0.8 µM, partner dose 2 µM), with 80.3%; and `O=c1[nH]nc(Sc2ncc([N+](=O)[O-])s2)n1-c1ccc2c(c1)OCCO2` + COc1ccc(-c2ccc3c(N4CCOCC4)nc(N4C[C@@H](C)O[C@@H](C)C4)nc3n2)cc1CO [KU0063794] (first compound 1 µM, partner dose 0.1 µM), with 118%. Turning to `C[C@@H]1CCN(C(=O)CC#N)C[C@@H]1N(C)c1ncnc2[nH]ccc12` + c1cc(-c2cnn3cc(-c4ccc(OCCN5CCCCC5)cc4)cnc23)ccn1 [Dorsomorphin] (first compound 5 µM, partner dose 2 µM), the cell count is 45.2%.

Regarding `O=C(O)c1ccc(-c2c[nH]c3ncc(-c4ccccc4)cc23)cc1C1CCCC1` + CCN(CC)CCCCNc1ncc2cc(-c3cc(OC)cc(OC)c3)c(NC(=O)NC(C)(C)C)nc2n1 [PD173074] (first compound 0.8 µM, partner dose 0.5 µM), the cell count was determined as 103%. Next, `CC1(C)NC(=O)N(c2ccc([N+](=O)[O-])c(C(F)(F)F)c2)C1=O` [nilutamide] + O=S(=O)(c1ccccc1)N(CC(F)(F)F)c1ccc(C(O)(C(F)(F)F)C(F)(F)F)cc1 [T0901317] (first compound 5 µM, partner dose 7 µM): 71.6%. On to `O=C(Nc1cccc(Cl)c1)Nc1ncc(CCNc2ncnc3ccsc23)s1` + N#Cc1c(O)c2c(-c3ccc(-c4ccccc4O)cc3)csc2[nH]c1=O [A769662] (first compound 0.004 µM, partner dose 10 µM), for which the cell count came to 99.2%. In turn, `O=C(Nc1cccc(Cl)c1)Nc1ncc(CCNc2ncnc3ccsc23)s1` + COc1ccc(-c2ccc3c(N4CCOCC4)nc(N4C[C@@H](C)O[C@@H](C)C4)nc3n2)cc1CO [KU0063794] (first compound 0.004 µM, partner dose 0.1 µM) displayed a cell count of 74.5%. For the compound `C[C@@H]1CCN(C(=O)CC#N)C[C@@H]1N(C)c1ncnc2[nH]ccc12` + Cc1cc([N+](=O)[O-])ccc1NS(=O)(=O)c1cc(Cl)ccc1Cl [FH535] (first compound 5 µM, partner dose 5 µM), the cell count came to 84.7%.

As to `COc1cc(Nc2ncc(F)c(Nc3ccc4c(n3)NC(=O)C(C)(C)O4)n2)cc(OC)c1OC` [Tamatinib] + COc1cc2ncnc(Nc3ccc(Oc4ccccc4)cc3)c2cc1OC [SrcI1] (first compound 2 µM, partner dose 10 µM), the cell count came to 63%.

With `Cn1cncc1[C@@](N)(c1ccc(Cl)cc1)c1ccc2c(c1)c(-c1cccc(Cl)c1)cc(=O)n2C` [tipifarnib] + Cn1cc(/C=C2\C(=O)Nc3cccnc32)c2ccccc21 [GW441756] (first compound 0.05 µM, partner dose 2 µM), the cell count came to 63.4%. Next, `O=C(Nc1cccc(Cl)c1)Nc1ncc(CCNc2ncnc3ccsc23)s1` + COc1ccc(COc2ccc(Cc3cnc(N)nc3N)cc2OC)cc1 [GW2580] (first compound 0.004 µM, partner dose 5 µM): 73.5%.

`O=C(Nc1cccc(Cl)c1)Nc1ncc(CCNc2ncnc3ccsc23)s1` + Oc1nc(-c2ccc(C(F)(F)F)cc2)nc2c1CSCC2 [XAV939] (first compound 0.004 µM, partner dose 10 µM) showed a cell count of 102%. Next, `C[C@@H]1CCN(C(=O)CC#N)C[C@@H]1N(C)c1ncnc2[nH]ccc12` + CCN(CC)CCCCNc1ncc2cc(-c3cc(OC)cc(OC)c3)c(NC(=O)NC(C)(C)C)nc2n1 [PD173074] (first compound 5 µM, partner dose 0.5 µM): 82.5%; `O=C(O)c1ccc(-c2c[nH]c3ncc(-c4ccccc4)cc23)cc1C1CCCC1` + O=C1NC(=O)/C(=C/c2ccc(-c3ccc(F)cc3O)o2)S1 [AS252424] (first compound 0.8 µM, partner dose 5 µM): 70.5%. Next, `C[C@@H]1CCN(C(=O)CC#N)C[C@@H]1N(C)c1ncnc2[nH]ccc12` + COC(=O)c1sccc1S(=O)(=O)Nc1ccc(Nc2ccccc2)cc1OC [GSK0660] (first compound 5 µM, partner dose 5 µM): 108%.
